These are yes or no findings as the source states them, for the method shown. Binding seen in cells or lysates may run through a third protein. Some results given as binding are weak or reduced against the parent protein; the word gives no strength.
What was measured:
Experiment in all cases: split reporter; Gaussia princeps luciferase complementation assay (GPCA) in HEK293T cells: Gluc2 on SKAP2/SKAP1, Gluc1 at the N (N1) or C (C1) terminus of the SRC kinase; 100 ng plasmid pair, luminescence read after lysis; normalized luminescence ratio (NLR), for mutants divided by that of wildtype SKAP2; loss of interaction = mean relative NLR among the nine kinases below 0.25
[1] = molecular target: N1-fused FYN (FGR-YES1-related novel protein) (UniProt P06241)
[2] = molecular target: N1-fused FRK (Fyn-related Src family tyrosine kinase) (UniProt P42685)
[3] = molecular target: N1-fused BLK (B lymphocyte kinase) (UniProt P51451)
[4] = molecular target: N1-fused LYN (LCK/Yes-related novel protein tyrosine kinase) (UniProt P07948)
C1-fused YES = C1-fused YES (UniProt P07947)
[5] = molecular target: N1-fused HCK W234A K7R mutant (UniProt P08631)
[6] = molecular target: N1-fused HCK Y501F mutant (UniProt P08631)
[7] = molecular target: N1-fused HCK P228A mutant (UniProt P08631)
[8] = molecular target: C1-fused HCK Y501F mutant (UniProt P08631)
[9] = molecular target: N1-fused HCK W234A Y390F mutant (UniProt P08631)
[10] = molecular target: C1-fused HCK Y30F K7R mutant (UniProt P08631)
[11] = molecular target: C1-fused HCK Y30F Y390F mutant (UniProt P08631)
[12] = molecular target: W93K R150M HCK double mutant (UniProt P08631)
[13] = molecular target: C1-fused HCK P228A mutant (UniProt P08631)

By UniProt entry, the sequences of proteins in these tests, tags left out. Where a name states a change or a piece, a line headed by the entry shows the natural chain unless it says otherwise. Chains listed by the source or under a name are the forms on record and can include a tag or linker.
UniProt P06241: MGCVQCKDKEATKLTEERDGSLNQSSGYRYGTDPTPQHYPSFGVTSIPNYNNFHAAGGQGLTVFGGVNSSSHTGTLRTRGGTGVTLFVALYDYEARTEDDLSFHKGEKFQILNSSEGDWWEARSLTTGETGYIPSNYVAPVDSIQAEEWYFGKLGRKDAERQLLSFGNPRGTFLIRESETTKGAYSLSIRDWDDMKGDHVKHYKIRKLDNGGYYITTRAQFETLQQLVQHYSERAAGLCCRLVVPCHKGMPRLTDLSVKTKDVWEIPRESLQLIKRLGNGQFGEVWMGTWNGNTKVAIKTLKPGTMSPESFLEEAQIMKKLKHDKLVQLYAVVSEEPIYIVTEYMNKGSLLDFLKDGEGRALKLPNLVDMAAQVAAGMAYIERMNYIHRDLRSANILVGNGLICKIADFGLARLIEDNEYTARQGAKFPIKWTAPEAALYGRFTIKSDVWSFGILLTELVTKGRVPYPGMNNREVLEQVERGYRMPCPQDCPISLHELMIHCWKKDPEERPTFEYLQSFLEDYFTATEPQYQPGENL
UniProt P51451: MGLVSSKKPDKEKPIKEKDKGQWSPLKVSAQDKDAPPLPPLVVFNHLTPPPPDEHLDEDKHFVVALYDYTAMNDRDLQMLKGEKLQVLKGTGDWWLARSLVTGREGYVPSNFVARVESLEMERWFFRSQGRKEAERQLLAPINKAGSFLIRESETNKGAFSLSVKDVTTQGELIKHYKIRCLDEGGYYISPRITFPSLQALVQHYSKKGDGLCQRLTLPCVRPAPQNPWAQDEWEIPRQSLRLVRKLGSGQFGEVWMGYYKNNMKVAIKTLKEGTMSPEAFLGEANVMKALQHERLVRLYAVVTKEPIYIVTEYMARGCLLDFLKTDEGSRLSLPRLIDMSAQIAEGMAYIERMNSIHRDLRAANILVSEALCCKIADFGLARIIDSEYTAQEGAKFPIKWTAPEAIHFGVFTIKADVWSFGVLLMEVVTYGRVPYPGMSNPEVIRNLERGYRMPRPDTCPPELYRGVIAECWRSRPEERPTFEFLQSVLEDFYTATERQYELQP
UniProt P07948: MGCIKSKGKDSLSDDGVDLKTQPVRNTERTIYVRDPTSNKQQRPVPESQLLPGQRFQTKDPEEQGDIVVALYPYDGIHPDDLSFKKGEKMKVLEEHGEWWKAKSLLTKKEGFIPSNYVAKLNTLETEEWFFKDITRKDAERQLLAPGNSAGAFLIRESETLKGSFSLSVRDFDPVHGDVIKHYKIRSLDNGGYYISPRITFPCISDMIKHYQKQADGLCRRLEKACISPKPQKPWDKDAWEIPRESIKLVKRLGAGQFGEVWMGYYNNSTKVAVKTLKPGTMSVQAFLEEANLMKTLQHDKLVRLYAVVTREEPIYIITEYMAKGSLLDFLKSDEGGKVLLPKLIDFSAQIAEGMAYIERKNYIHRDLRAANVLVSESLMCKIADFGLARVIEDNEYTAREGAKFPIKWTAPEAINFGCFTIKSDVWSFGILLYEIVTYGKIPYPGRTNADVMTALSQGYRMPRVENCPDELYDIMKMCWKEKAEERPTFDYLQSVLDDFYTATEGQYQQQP
N1-fused HCK W234A K7R mutant (P08631, form named): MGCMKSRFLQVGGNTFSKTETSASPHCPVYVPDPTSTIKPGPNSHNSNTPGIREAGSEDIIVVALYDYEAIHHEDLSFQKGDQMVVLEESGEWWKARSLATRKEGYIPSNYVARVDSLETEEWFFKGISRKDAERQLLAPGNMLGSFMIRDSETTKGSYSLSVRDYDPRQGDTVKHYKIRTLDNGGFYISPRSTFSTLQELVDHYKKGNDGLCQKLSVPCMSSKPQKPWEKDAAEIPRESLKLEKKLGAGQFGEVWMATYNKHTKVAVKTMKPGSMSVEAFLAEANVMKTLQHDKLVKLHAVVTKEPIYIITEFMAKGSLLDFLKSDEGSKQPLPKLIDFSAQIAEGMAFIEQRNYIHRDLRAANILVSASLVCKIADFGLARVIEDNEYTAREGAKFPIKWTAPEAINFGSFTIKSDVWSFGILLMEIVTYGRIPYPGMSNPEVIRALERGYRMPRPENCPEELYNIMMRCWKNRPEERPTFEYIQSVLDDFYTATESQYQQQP
C1-fused HCK Y501F mutant (P08631, form named): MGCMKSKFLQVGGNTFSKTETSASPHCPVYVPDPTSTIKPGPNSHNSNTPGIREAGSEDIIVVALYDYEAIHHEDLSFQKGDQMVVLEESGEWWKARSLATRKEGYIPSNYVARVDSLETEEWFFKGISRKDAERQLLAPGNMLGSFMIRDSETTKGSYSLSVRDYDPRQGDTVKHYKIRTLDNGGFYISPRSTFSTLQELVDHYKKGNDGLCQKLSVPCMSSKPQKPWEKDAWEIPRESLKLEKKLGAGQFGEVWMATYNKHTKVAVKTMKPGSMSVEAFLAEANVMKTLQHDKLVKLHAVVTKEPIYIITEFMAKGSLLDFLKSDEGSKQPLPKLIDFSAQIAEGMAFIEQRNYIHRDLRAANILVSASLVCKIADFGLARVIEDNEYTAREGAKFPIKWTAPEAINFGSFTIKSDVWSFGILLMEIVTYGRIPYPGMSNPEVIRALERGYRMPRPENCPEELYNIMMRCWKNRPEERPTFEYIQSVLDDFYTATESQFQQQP
C1-fused HCK P228A mutant (P08631, form named): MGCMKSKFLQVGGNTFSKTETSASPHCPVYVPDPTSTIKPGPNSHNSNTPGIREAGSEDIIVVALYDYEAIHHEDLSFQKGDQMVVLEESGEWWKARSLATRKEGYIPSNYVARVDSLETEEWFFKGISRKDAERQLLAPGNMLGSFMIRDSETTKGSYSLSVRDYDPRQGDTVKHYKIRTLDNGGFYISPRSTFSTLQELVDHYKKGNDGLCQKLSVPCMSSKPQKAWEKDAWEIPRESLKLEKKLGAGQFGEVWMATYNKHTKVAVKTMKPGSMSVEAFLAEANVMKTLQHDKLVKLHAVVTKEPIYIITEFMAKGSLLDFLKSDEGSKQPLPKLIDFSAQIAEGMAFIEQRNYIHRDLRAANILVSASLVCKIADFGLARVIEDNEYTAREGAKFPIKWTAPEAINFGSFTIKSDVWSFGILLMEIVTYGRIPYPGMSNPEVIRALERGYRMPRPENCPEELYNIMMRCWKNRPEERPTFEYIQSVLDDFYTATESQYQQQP
N1-fused HCK W234A Y390F mutant (P08631, form named): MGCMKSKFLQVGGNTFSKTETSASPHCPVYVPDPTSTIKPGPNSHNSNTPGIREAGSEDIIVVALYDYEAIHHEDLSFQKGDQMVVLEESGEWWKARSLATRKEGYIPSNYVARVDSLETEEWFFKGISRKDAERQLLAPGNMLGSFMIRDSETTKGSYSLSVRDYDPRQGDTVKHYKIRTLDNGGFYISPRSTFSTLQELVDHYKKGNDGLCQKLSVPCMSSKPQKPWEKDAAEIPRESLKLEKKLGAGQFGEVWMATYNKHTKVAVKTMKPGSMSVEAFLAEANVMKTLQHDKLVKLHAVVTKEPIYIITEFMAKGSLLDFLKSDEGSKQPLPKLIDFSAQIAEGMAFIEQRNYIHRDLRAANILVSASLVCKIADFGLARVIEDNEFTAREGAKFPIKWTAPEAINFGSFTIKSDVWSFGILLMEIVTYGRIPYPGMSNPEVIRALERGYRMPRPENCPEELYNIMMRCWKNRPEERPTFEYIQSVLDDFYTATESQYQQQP
C1-fused HCK Y30F K7R mutant (P08631, form named): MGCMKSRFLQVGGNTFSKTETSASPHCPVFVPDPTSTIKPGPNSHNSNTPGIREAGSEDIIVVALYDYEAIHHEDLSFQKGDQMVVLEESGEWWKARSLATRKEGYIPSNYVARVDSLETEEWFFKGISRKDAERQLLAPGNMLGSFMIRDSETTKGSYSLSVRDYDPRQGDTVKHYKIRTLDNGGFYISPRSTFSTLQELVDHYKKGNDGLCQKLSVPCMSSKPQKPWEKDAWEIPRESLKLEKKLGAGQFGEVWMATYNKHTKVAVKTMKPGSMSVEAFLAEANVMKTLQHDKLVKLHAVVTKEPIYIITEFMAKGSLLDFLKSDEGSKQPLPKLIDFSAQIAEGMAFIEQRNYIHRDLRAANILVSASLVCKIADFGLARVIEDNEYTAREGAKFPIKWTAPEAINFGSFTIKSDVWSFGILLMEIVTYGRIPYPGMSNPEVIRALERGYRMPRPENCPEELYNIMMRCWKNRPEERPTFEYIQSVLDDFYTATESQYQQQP
C1-fused HCK Y30F Y390F mutant (P08631, form named): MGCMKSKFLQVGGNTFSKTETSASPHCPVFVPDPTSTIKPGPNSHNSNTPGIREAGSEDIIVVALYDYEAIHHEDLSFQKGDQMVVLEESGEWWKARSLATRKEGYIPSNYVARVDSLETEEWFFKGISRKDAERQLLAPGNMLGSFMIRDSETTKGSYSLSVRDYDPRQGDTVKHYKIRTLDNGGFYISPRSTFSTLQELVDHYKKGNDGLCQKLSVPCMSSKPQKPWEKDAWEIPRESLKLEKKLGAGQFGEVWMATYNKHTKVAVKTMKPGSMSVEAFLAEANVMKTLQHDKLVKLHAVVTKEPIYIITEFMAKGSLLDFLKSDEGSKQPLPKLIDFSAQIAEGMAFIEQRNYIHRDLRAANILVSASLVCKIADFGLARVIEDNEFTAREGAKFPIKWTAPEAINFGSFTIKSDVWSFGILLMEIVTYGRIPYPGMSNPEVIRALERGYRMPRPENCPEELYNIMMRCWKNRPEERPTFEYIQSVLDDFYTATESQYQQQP
W93K R150M HCK double mutant (P08631, form named): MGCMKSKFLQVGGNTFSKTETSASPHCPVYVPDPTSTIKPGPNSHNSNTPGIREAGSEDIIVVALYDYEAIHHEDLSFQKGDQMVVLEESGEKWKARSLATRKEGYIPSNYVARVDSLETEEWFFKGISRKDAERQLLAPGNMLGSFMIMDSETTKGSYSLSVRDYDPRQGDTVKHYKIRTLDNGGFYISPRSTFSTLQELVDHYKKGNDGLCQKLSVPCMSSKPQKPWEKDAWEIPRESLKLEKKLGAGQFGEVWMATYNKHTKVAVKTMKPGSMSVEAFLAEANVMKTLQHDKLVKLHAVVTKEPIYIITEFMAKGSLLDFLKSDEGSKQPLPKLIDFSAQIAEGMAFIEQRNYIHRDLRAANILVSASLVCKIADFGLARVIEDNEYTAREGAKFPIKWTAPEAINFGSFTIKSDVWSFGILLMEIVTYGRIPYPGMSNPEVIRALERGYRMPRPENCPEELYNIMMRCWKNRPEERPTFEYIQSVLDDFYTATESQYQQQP
UniProt O75563: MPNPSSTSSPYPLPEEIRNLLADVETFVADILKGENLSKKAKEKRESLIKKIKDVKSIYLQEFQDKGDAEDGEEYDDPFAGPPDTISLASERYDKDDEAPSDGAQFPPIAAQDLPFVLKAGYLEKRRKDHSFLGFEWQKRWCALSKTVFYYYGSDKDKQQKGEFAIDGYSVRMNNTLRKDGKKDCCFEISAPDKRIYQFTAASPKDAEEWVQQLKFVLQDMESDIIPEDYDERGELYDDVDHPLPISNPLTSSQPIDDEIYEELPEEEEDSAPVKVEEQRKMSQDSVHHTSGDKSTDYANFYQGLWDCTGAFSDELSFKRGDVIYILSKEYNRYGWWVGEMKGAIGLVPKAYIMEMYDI
N2-SKAP2 D129K-3YF mutant (O75563, form named): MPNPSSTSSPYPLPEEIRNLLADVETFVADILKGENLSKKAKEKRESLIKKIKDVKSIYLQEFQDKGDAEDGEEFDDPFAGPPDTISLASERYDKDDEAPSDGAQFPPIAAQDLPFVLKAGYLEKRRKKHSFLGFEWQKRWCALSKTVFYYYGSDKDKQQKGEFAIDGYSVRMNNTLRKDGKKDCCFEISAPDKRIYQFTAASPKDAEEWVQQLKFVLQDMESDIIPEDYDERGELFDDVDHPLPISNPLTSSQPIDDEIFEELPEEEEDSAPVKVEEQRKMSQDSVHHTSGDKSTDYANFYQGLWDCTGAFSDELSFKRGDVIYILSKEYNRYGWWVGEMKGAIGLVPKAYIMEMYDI
N2-SKAP2 DIM^−-D129K mutant (O75563, form named): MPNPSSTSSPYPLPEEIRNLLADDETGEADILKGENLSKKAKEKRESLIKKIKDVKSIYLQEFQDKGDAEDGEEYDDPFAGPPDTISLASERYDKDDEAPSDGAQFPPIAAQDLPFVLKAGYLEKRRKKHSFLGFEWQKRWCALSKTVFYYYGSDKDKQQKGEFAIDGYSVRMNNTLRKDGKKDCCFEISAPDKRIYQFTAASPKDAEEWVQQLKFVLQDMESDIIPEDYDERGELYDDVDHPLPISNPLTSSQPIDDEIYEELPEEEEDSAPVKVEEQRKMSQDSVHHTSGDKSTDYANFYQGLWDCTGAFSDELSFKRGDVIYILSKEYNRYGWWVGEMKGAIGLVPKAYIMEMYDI

binding [1] | binding [2] | binding [3] | binding [4] | binding (C1-fused YES) | binding [5] | binding [6] | binding [7] | binding [8] | binding [9] | binding [10] | binding [11] | binding [12] | binding [13] | Substance
binds | binds | binds | binds | binds |  |  |  |  |  |  |  |  |  | N2-SKAP2 3YF mutant (Y75F, Y237F, Y261F) (from UniProt O75563 1-359)
binds | binds | binds | binds | binds | binds | binds | binds | binds | binds | binds | binds | binds | binds | N2-SKAP2 (SRC kinase adaptor phosphoprotein 2, wildtype) (from UniProt O75563 1-359)
binds | binds | binds | binds | binds |  |  |  |  |  |  |  |  |  | N2-SKAP2 D129K mutant (from UniProt O75563 1-359)
binds | binds | binds | binds | binds |  |  |  |  |  |  |  |  |  | N2-SKAP2 D129K-3YF mutant (from UniProt O75563 1-359)
binds | binds | binds | binds | binds |  |  |  |  |  |  |  |  |  | N2-SKAP2 DIM^− mutant (V24D, F27G, V28E) (from UniProt O75563 1-359)
binds | binds | binds | binds | binds |  |  |  |  |  |  |  |  |  | N2-SKAP2 DIM^−-D129K mutant (from UniProt O75563 1-359)
no binding | no binding | no binding | no binding | no binding |  |  |  |  |  |  |  |  |  | N2-SKAP2 SH3 deletion mutant (SH3 domain alone) (from UniProt O75563 297-358) (domain or fragment)
binds | binds | binds | binds | binds |  |  |  |  |  |  |  |  |  | N2-SKAP2 W336K mutant (from UniProt O75563 1-359)

Reference: publication PMC9792355
